# The supplement of paper PMC3334620
# Over roughly 33,000 sequences, “E-score (-0.5 to 0.5)” has its median near -0.04; the highest 2% begin near 0.36. This is one part of the list.
# Target: T1, Hmlalpha2 (UniProt P0CY09)
# T1 sequence: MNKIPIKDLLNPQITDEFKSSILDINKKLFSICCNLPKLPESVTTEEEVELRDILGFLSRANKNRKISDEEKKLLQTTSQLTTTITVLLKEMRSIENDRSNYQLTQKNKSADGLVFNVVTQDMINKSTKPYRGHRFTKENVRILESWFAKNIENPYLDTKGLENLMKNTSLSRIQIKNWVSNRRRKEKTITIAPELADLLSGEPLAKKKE
# Test: PBM E-score (8-mer binding enrichment) (E-score (-0.5 to 0.5)); higher = stronger / more preferred TF binding; most listed sequences are background and not binding sites
# Details: protein concentration: 200 nM; construct: GST-full length
# Procedure, shortened: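 GST-tagged yeast TFs (full-length or DNA-binding domain) were made by PURExpress in vitro transcription/translation and applied at about 100-200 nM to universal all-10-mer Agilent arrays. The arrays were made double-stranded by primer extension, on fresh or once-stripped slides. Bound protein was detected with fluorescent anti-GST, and scans were normalised with masliner. Each ungapped eight-base word, pooled with its reverse complement, received an E-score (modified Wilcoxon-Mann-Whitney statistic) from the Universal PBM Analysis Suite.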
row,Sequence,PBM E-score
1,CCGAAAGA,-0.201
2,CTTGTGTA,0.41
3,ATTGATGG,0.08
4,CGACGGAG,-0.22
5,CACCGGTG,-0.363
6,CCTACGAA,-0.0968
7,CCGTTCAC,-0.167
8,GAAGGTCA,-0.0603
9,CAGCGCGG,-0.0131
10,ATCGTCGC,0.0996
11,ATCCTCCG,-0.311
12,CGACACTC,0.00542
13,CTAGTAAC,0.027
14,GACAATAA,0.113
15,GACCCGCA,-0.146
16,CCTACTCC,-0.12
17,GCGCTCCA,-0.291
18,CGATTCTC,-0.0697
19,ACGTACTA,0.256
20,GAGGGGAA,-0.264
21,ATCAATGA,0.213
22,AGACCCCT,-0.26
23,GGCCCACC,-0.287
24,ACGGGCCC,-0.198
25,CGGACGAA,0.154

row,Sequence,PBM E-score
1,GGACTTGA,-0.26
2,ATTCTTGG,-0.0614
3,ATTAAACC,0.0575
4,AACATGTA,0.484
5,AATCTTAT,0.114
6,TCTACAAA,0.252
7,ACTTGAGA,0.0583
8,AATGTAGT,0.249
9,ACCTTGGG,-0.151
10,AGGTGGCG,-0.196
11,TGTGTGAA,0.335
12,ACTTTCCG,-0.202
13,AGCAATAC,0.192
14,ATCAATTA,0.263
15,CTAAGATA,-0.0324
16,CACCTCTC,-0.182
17,ATGTGTCG,0.144
18,CAGTTCGG,-0.104
19,CGTGAGCC,-0.137
20,TCATGAAA,-0.126
21,GAGCCGGC,-0.351
22,AGTTTATG,0.0382
23,GGGGTGGA,-0.271
24,AACGAAAG,0.0852
25,CACAAATC,-0.074

row,Sequence,PBM E-score
1,CATTGGTC,-0.135
2,AAAGTTCC,-0.169
3,GTTTTCGA,0.09
4,AATATTCA,0.142
5,CAACAGTA,0.106
6,AAGTCCCA,-0.329
7,AGTAGATC,-0.0121
8,CTGAGTGA,0.0278
9,ATTCCCCG,0.0375
10,CATTTGAG,0.111
11,CACTGCTG,-0.316
12,CGGGACCA,-0.225
13,AATTTCAT,0.0645
14,ACCGACAA,-0.23
15,AAAAAGCG,-0.0415
16,GGGGCTCA,-0.306
17,AAAGAAAT,0.175
18,CCCTATCC,-0.338
19,CACTTACA,0.281
20,GCTGTCGA,-0.092
21,GTCGGAAA,-0.0612
22,GTGTACTA,0.311
23,GCGCCGCC,-0.159
24,ATTCTACG,0.157
25,GTAAGGTA,0.284

row,Sequence,PBM E-score
1,ACAGGTCA,-0.0382
2,CTCGGGTA,0.0203
3,AAGACCTA,-0.143
4,ACAGCGCC,-0.00098
5,CGCCCGTC,-0.192
6,AATACGGG,-0.051
7,ATGAGCCG,-0.236
8,AGAGTATA,0.116
9,GAGTTCCC,-0.146
10,ACCTTCTG,-0.0867
11,GATGCGTA,0.21
12,CAGTTCTC,-0.179
13,AGAGGAAT,-0.0603
14,ATGCCCTG,-0.0289
15,CAAGCTTG,0.0552
16,ACATAATC,0.308
17,AAACCCCC,-0.257
18,AGACTTTC,-0.193
19,CTATCTCA,-0.184
20,CGCGTGAA,0.214
21,TATGAAAA,0.143
22,GAACTGGA,-0.147
23,ATGGTCAG,-0.0329
24,AGGATTAA,0.0424
25,CAAACTCC,0.00776

row,Sequence,PBM E-score
1,GATAGGCA,-0.125
2,AGAGACAA,-0.113
3,TGAGCTAA,0.107
4,AACATGGT,0.384
5,GGAGCTAA,-0.0791
6,AGGTAAGG,-0.0565
7,ATCCTAAC,0.116
8,CGAGCCGC,0.0569
9,AGACTACT,0.111
10,ACAAATGA,0.102
11,GGACGCCA,-0.257
12,GCCGACCA,-0.155
13,CATAGGGG,-0.18
14,ACTTACAC,0.378
15,GACCATTA,-0.0125
16,AGCGCCTG,-0.225
17,AATGAGTC,-0.0327
18,CAATGTCG,0.223
19,GCGTTGCC,-0.123
20,CTTAGCGA,-0.0312
21,ATGCTTAG,0.104
22,AAGAAGCT,0.114
23,CCTTACAC,0.334
24,TACACAGA,0.424
25,TACCGAAA,0.0266

row,Sequence,PBM E-score
1,AACAAGCG,0.233
2,ATTGTTCC,-0.0173
3,GCGCAGCC,-0.315
4,AGTCGGCA,-0.0135
5,AGGCGGAG,-0.241
6,AGAGCTGA,-0.24
7,AGAGATTG,0.0509
8,AAGCTCGG,-0.14
9,ACCGCTTA,-0.0235
10,CAATATTA,0.213
11,CTCCTAAA,-0.065
12,TAGGAAAA,-0.0836
13,ATGTAATC,0.478
14,AATCCCCC,-0.225
15,GCGGCAAA,-0.16
16,CGAATGTA,0.262
17,AATCGCTG,-0.0235
18,CAGCAAGA,-0.0162
19,CTGCAAAC,-0.0122
20,CGCCATTA,-0.0604
21,CCCTGTCC,-0.108
22,AATGAAGC,-0.0377
23,GACTTGAC,-0.0157
24,CCGTCTTA,-0.154
25,GTTAATGA,0.278

row,Sequence,PBM E-score
1,AAGACATC,-0.171
2,CGACAGCC,-0.223
3,CACGCAGG,0.196
4,TAGCGTCA,0.0061
5,CCGGCCGA,-0.226
6,CAGCCCCG,-0.108
7,CCATAGCC,-0.191
8,CACTCTTC,-0.174
9,ATCGGCAT,-0.0468
10,CAGTTGCA,0.00547
11,GTAGCAAA,0.128
12,CATGTTAC,0.41
13,GATTTCCA,-0.0253
14,ATAGCTGA,-0.077
15,ACCCTCAC,-0.24
16,AAACCAGG,-0.0724
17,CGCACCTC,-0.166
18,GGAAGATA,0.0425
19,AAGCTAGA,-0.06
20,CCGTGATA,-0.137
21,AAAATGTG,-0.0256
22,GCGATGAC,0.0674
23,GAGTGGAC,-0.165
24,AGGTTGGG,-0.0364
25,CCGTCAAC,0.0119

row,Sequence,PBM E-score
1,AATCCACA,0.0311
2,CACCCCAG,-0.205
3,AGTATGAC,0.0358
4,AATATCCA,0.0842
5,TCACCCCA,-0.0867
6,GTCGTGTA,0.464
7,AACCCACG,-0.0684
8,ATATAGAT,0.151
9,AAGTAAGA,0.0354
10,AAGGCACG,-0.0893
11,AATGGCGT,-0.15
12,AAATTCCC,-0.118
13,AAATGTCC,-0.0256
14,GCGCTACA,0.0713
15,GGGGGATA,-0.344
16,ACACCCAT,-0.0488
17,CATCTTTC,0.0645
18,CATAAATG,-0.0786
19,AACTTACA,0.327
20,GCTAACGA,0.0338
21,GACAGGAC,-0.0641
22,ACTCATCG,0.0955
23,CGTGTCCC,0.0452
24,GGCCAGGA,-0.289
25,AGCCAGAC,-0.0435

row,Sequence,PBM E-score
1,AGGTAGTC,-0.102
2,GGCCTAGA,-0.21
3,ACTCTGAC,-0.0321
4,GTAGCCTA,-0.0197
5,CGACATTA,0.244
6,CGTAAAAC,0.281
7,GTAGCGAC,-0.0195
8,GCATTGAA,0.141
9,GTGAAACA,0.148
10,CCCCCAGG,-0.26
11,ATGATTTC,0.105
12,GGTCCATA,-0.245
13,ATCCTGGA,-0.115
14,CATCGACA,-0.0243
15,ATCACACA,0.228
16,AAGTGTGG,-0.123
17,GGAGCGGA,-0.275
18,AGTCCTCG,-0.109
19,AGGCCTGC,-0.139
